Results on 53 molecules are retold here after ChEMBL document CHEMBL4888484, “Replenishing the malaria drug discovery pipeline: Screening and hit evaluation of the MMV Hit Generation Library 1 (HGL1) against asexual blood stage Plasmodium falciparum ,using a nano luciferase reporter read-out” (2022).

Out of some 150,000 compounds screened, about 540 (0.36%) showed an effect of 50% or more. The list shows a part of the results.

The assay has as its system Plasmodium falciparum. The experiment in a line: Primary screen in NF54 nanoGlo assay, in single point, at 2uM, 72h; a lower Z score goes with more inhibition. The conditions noted are these: timepoint 72 hour. In kind it is functional, Erythrocyte.
With `CCC(CC)C(=O)N(Cc1cc(NC(=O)C(C)C)ccc1N(C)C)[C@@H](C)C(C)C`, the “% Inhibition” value amounted to 8% and the Z score is given as -1.02.

Regarding `CC1(C)CC(=O)C2(CC(=O)N3CCc4ccccc4[C@@H]32)C(=O)C1`, the “% Inhibition” value was -4% and the Z score amounted to 0.51.

For `O=C(CC(F)(F)F)NC(c1ccc(F)cc1)[C@H]1C[C@@H](O)C1` (stereo partly specified), the “% Inhibition” value is on record as -5% and the Z score worked out at 0.91.

Turning to `CCn1nc(C)c(CNCc2c(C)nc3ccccn23)c1C`, the “% Inhibition” value is -7% and the Z score was found to be 0.91.

Turning to `O=C(Nc1ccc2c(c1)OCCCO2)N1CCC[C@H]1c1cccs1`, the “% Inhibition” value worked out at 0% and the Z score is on record as 0.

With `c1nc(N2CCCC2)cc(N2CCC(c3noc(C4CC4)n3)CC2)n1`, the “% Inhibition” value is -18% and the Z score was found to be 1.86.

As for `CCOc1ccc(C(O)(C2CCCCC2)C(CN2CCOCC2)c2ccc(Cl)cc2)cc1` (stereo unspecified), the “% Inhibition” value came out at 2% and the Z score is -0.29.

In the case of `COC1(OC)CC2(CN(Cc3cccc4cnccc34)[C@H]2C(C)C)C1`, the “% Inhibition” value is reported as -5% and the Z score was 0.74.

Consider `Cc1ccc2c(c1)C(=O)NC1(CCN(C(=O)c3ccc(F)c(Cl)c3)CC1)N2C`, for which the “% Inhibition” value turned out to be 6% and the Z score is reported as -0.79.

As to `CCN(CC)C(=O)[C@@H]1C[C@H](NC(=O)c2cccc(OC(F)F)c2)CN1C`, the “% Inhibition” value is reported as -6% and the Z score is on record as 0.71.

`Cc1noc(C)c1S(=O)(=O)N1CC[C@@H]2COCCN(Cc3ccccc3)[C@@H]2C1`: the “% Inhibition” value was -11% and the Z score is 1.44.

In the case of `CCN1CCCCC1C(=O)N[C@H]1[C@@H]2COC[C@@H]21` (stereo partly specified), the “% Inhibition” value was -6% and the Z score is reported as 1.03.

On to `CC1(C)CCN(C(=O)NCCc2cnc(C3CC3)nc2)CC(C)(C)C1`, for which the “% Inhibition” value is -6% and the Z score worked out at 0.89.

Take `Cn1c([C@@H]2CCCN2C(=O)c2ccco2)nc2ccccc21`: the “% Inhibition” value was -1% and the Z score came to 0.14.

Regarding `Cn1ccnc1C(=O)NCc1nc2ccccc2[nH]1`, the “% Inhibition” value is -1% and the Z score came out at 0.26.

Turning to `CCc1nnc(-c2nnc(NCc3nc4ccccc4n3C)c3ccccc23)o1`, the “% Inhibition” value was 12% and the Z score was -1.43.

In the case of `CCc1nc(C)c(NC(=O)NCc2ccccn2)s1`, the “% Inhibition” value amounted to 1% and the Z score is on record as -0.09.

With `Cc1ccc(CC[C@H](C)NC(=O)NCc2ncnn2C(C)(C)C)o1`, the “% Inhibition” value is reported as -10% and the Z score was determined as 0.91.

For `CC(=O)c1c(F)cc(F)cc1OCc1nnn(CC(F)(F)F)n1`, the “% Inhibition” value was 0% and the Z score was 0.01.

For `COC[C@H](Nc1cncc(-n2nc(C)cc2C)n1)c1ccc(C)o1`, the “% Inhibition” value is given as -16% and the Z score amounted to 2.05.

Regarding `CCC(=O)Nc1ccc(N2CCN(C(=O)Nc3cccc(C)c3)CC2)c(C(=O)NCc2ccc(F)cc2)c1`, the “% Inhibition” value turned out to be 1% and the Z score is -0.08.

As for `COc1ccc(C(=O)Cn2cnc3c2c(=O)n(C2CC2)c(=O)n3-c2ccccc2C)cc1`, the “% Inhibition” value is 6% and the Z score is reported as -0.74.

Regarding `Cc1cnn(CC(=O)N2CCO[C@H](c3nccs3)C2)c1`, the “% Inhibition” value is reported as -5% and the Z score stood at 0.73.

As to `CC12CCC(C(=O)Nc3cccc4ncccc34)(C(=O)C1=O)C2(C)C` (stereo unspecified), the “% Inhibition” value is given as -1% and the Z score turned out to be 0.08.

Consider `CN1CC2(C[C@H]1C(=O)N1CCOCC1)CN(Cc1ccccc1)C2`, for which the “% Inhibition” value is listed as -7% and the Z score was found to be 0.8.

As for `Cc1n[nH]c(C(=O)N2CCCCCC2)c1Br`, the “% Inhibition” value was found to be 3% and the Z score is reported as -0.33.

As to `CC(=O)NC1CCC(NCC2(c3ccc(F)cc3Cl)CC2)CC1` (stereo unspecified), the “% Inhibition” value is listed as -9% and the Z score amounted to 1.41.

As for `CC(C)C1=N[C@@H](Cc2ccccc2)C(=O)Nc2ccccc21`, the “% Inhibition” value is on record as -3% and the Z score is on record as 0.58.

Turning to `CCCn1nccc1C(=O)N1CCC[C@@]2(CCN(C)C2)C1`, the “% Inhibition” value was determined as 1% and the Z score was -0.09.

Take `C=CCNc1nc(-c2ccc(O)c(OC)c2)cs1`: the “% Inhibition” value is on record as -21% and the Z score stood at 1.84.

Take `CCCc1ccc(S(=O)(=O)N2CCc3[nH]cnc3C2)cc1`: the “% Inhibition” value is recorded as -15% and the Z score is reported as 1.8.

As to `Cc1ccnc(NS(=O)(=O)c2ccc(NC(=O)CS(=O)(=O)c3ccccc3)cc2)n1`, the “% Inhibition” value is -1% and the Z score is reported as 0.08.

In the case of `COCCC(C)(C)NC(=O)[C@H](C)c1ccccc1`, the “% Inhibition” value was -4% and the Z score amounted to 0.71.

In the case of `Fc1ccc(-c2cccc(-n3cnnc3)c2)c(Cl)c1`, the “% Inhibition” value is recorded as 1% and the Z score is -0.14.

Regarding `O=C(CN1N=C(c2nc(-c3ccccc3)no2)CCC1=O)N1CCN(c2ncccn2)CC1`, the “% Inhibition” value is reported as 3% and the Z score is -0.4.

As to `COc1cc(F)ccc1N(C)S(=O)(=O)N(C)C`, the “% Inhibition” value came out at 1% and the Z score is -0.12.

Take `Cc1cc(OCCN2CCOCC2)c(C)c2c1CC[C@@H]([C@H](C)C(=O)N1CCOCC1)C2`: the “% Inhibition” value is listed as 5% and the Z score is given as -0.78.

On to `N#Cc1ccc(OC2CCN(C(=O)c3cccc4c3CCC4)CC2)cc1`, for which the “% Inhibition” value is listed as -1% and the Z score is 0.15.

Consider `CC1(C)CC(NC(=O)Cc2ccc(Cl)cc2Cl)CC(C)(CNC(=O)Cc2ccc(Cl)cc2Cl)C1` (stereo unspecified), for which the “% Inhibition” value is given as -35% and the Z score came to 4.08.

For the molecule `CCN1CCN(CCC(=O)N[C@H](C#N)C2CCCCC2)CC1`, the “% Inhibition” value is -8% and the Z score was determined as 0.64.

For the molecule `Cc1cccc([C@@H](CC(=O)NC2CC2)c2cn(Cc3ccc(F)cc3)c3ccccc23)c1`, the “% Inhibition” value is recorded as -1% and the Z score is recorded as 0.14.

`CCS(=O)(=O)c1c[nH]c(=O)c(C(=O)N2CCCc3ccccc32)c1`: the “% Inhibition” value came out at 6% and the Z score is recorded as -0.8.

Consider `CC(=O)N1CCC(CC(=O)Nc2nc(C)c(C)s2)(N2Cc3ccccc3C2=O)CC1`, for which the “% Inhibition” value turned out to be 1% and the Z score is on record as -0.13.

With `Cc1ccc(NC(=O)N[C@H]2CCN(C(=O)C3CCCCC3)C2)c(C)c1`, the “% Inhibition” value is listed as -4% and the Z score was determined as 0.69.

In the case of `O=c1cc(-c2ccccc2)nc(-n2[nH]c(-c3ccccc3)cc2=O)[nH]1`, the “% Inhibition” value is listed as -9% and the Z score is recorded as 1.33.

For the molecule `Cn1cccc1-c1nnc(C2(c3cccc(Cl)c3)CCOCC2)o1`, the “% Inhibition” value stood at 0% and the Z score was 0.03.

For the molecule `O=C(CCOCC(F)(F)C(F)F)N1CC2CCCCC2C1` (stereo unspecified), the “% Inhibition” value is reported as -8% and the Z score was 0.7.

For `COc1ccc(/C=C/CN2CCC[C@@H]2CCO)cc1`, the “% Inhibition” value is reported as -9% and the Z score is 1.43.

Consider `Cc1ccc(CNC(=O)C[C@H](C)Cc2nnc3c(=O)n(-c4cccc(F)c4)ccn23)cc1`, for which the “% Inhibition” value is given as -8% and the Z score came to 1.18.

As for `Cc1ccc([C@@H](C#N)N2CCC(C)CC2)o1`, the “% Inhibition” value is recorded as -1% and the Z score is 0.12.

As for `CC(=O)N[C@@H](C(=O)NCc1ccc(Cl)cc1)C(=O)Nc1ccc(C(C)C)cc1`, the “% Inhibition” value came to 4% and the Z score is -0.57.

On to `Cn1cccc1C(=O)N1CCOc2ccc(N3CCOCC3)cc2C1`, for which the “% Inhibition” value was determined as 4% and the Z score is listed as -0.77.

For the molecule `C#CCOc1ccc(N(C)CCCC(=O)NC(=O)NC)cc1`, the “% Inhibition” value is -9% and the Z score was 1.18.

As usually defined, the % Inhibition is the relative decrease from the control value, in per cent.
